# Results from PubChem BioAssay AID686979 (National Center for Advancing Translational Sciences (NCATS), 2013).
# Hit rate of the full screen: of about 420,000 compounds, about 50,000 (12%) were called active. Inconclusive means that the source gave no clear call. Such entries were picked first, then a sample of the others. Calls come from the whole dose curve; as a rule, active = well fitted inhibition curve with a large enough effect; inconclusive = small, poorly fitted or top-dose-only effect; inactive = flat fitted curve, though single readings scatter. No potency is given beside an inconclusive call; the fits are too rough.
# Assay: qHTS for Inhibitors of human tyrosyl-DNA phosphodiesterase 1 (TDP1): qHTS in cells in presence of CPT; note: nearly all actives have a fitted effect of over 55% in size
# Conditions: chicken DT40 Tdp1-/-;hTDP1 cells + 20 nM CPT, ATP luminescence, 48 h; activity change, negative = growth inhibition: at 46.2 µM (top of the series) unless noted
# Method in brief: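 Chicken DT40 Tdp1-/- cells complemented with human TDP1, 400 cells/well, exposed to compounds plus 20 nM camptothecin for at least 48 h at 37 C; viability read as ATP content by CellTiter-Glo luminescence.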
# % is set by controls: 0 for no effect and ±100 for the full control effect; potency is the fitted concentration of half-maximal effect; tags give direction and shape of the fitted curve.
SMILES,Potency,"activity change, negative = growth inhibition"
Cc1cccc(CN2CCN(C3CN(C4CCCC4)S(=O)(=O)C3)CC2)c1 (stereo not drawn),"inconclusive [inhibitor, single point]",–
CCNS(=O)(=O)c1ccc(NC(=O)Nc2cccc(C(F)(F)F)c2)cc1,"inconclusive [inhibitor, single point]",–
CC(Sc1ccc(S(=O)(=O)N2CCN(C)CC2)cn1)C(=O)Nc1cccc(Cl)c1Cl (stereo not drawn),"inconclusive [inhibitor, single point]",–
CN(C)c1nn(C(=O)Nc2ccc(Cl)cc2Cl)cc1-c1ccccc1,–,inactive: -1.26%
CCC(C)NS(=O)(=O)c1ccc(OCC(=O)NCc2ccccn2)cc1 (stereo not drawn),"inconclusive [inhibitor, full curve, poor fit]",–
CSc1ccc(-c2cc3c(c4c2ccn4C)C2CCC3O2)cc1 (stereo not drawn),"inconclusive [inhibitor, partial curve]",–
C/C=C(/C)C(=O)OC1C(OC(C)=O)[C@@]2(CO)C(O)C[C@@]3(C)C(=CCC4[C@@]5(C)CCC(OC6OC(C(=O)O)[C@@H](O[C@@H]7OC(CO)C(O)C(O)C7O)C(O)[C@H]6O[C@@H]6OC(CO)C(O)C(O)C6O)[C@](C)(CO)C5CC[C@@]43C)C2CC1(C)C (stereo partly drawn),"inconclusive [inhibitor, single point]",–
O=C(Cc1c(F)cccc1Cl)N/N=C/c1cccs1,"inconclusive [inhibitor, single point]",–
CCN(CC)C(=O)c1cc2cc(Br)ccc2oc1=O,–,inactive: 0.634%
CCC(=O)Nc1ccc2c(c1)C(=O)N(C1CCCCC1)C2=O,"inconclusive [inhibitor, partial curve]",–
O=C(NCCc1nc2ccccc2n1Cc1ccc(Cl)cc1Cl)c1ccco1,active: 1.84 µM,–
CC(=O)c1ccc(OCCNS(=O)(=O)c2ccc(-n3cnnn3)cc2)cc1,"inconclusive [inhibitor, partial curve, poor fit]",–
Cc1nn(-c2ccc(N3CCCC3)nn2)c(C)c1CCC(=O)Nc1ccc(F)c(Cl)c1,active: 18.4 µM,–
COc1ccc(Br)cc1CN(C)C(=O)c1ccc2c(c1)NC(=O)C(C)S2 (stereo not drawn),–,inactive: 18.3%
Cc1ccc(-c2noc(-c3ccccc3NC(=O)C3CC(=O)N(c4ccccc4C)C3)n2)cc1 (stereo not drawn),active: 18.4 µM,–
Cc1cc(C(=O)Cn2nnc(-c3ccc(Cl)cc3)n2)c(C)n1-c1ccccc1,–,inactive: -18.2%
CCOC(=O)c1c(NC(=O)c2ccc(Br)o2)sc(C)c1CC,"inconclusive [inhibitor, single point]",–
Cc1cccc(C(=O)NCCN2CCN(c3ccccc3)CC2)c1,–,inactive: -8.73%
